# Laboratory results from article PMC10157725.
# The chains behind the UniProt entries cited, without tags or fusion partners. Residues count along the entry.
# UniProt P97798, residues 37-1492: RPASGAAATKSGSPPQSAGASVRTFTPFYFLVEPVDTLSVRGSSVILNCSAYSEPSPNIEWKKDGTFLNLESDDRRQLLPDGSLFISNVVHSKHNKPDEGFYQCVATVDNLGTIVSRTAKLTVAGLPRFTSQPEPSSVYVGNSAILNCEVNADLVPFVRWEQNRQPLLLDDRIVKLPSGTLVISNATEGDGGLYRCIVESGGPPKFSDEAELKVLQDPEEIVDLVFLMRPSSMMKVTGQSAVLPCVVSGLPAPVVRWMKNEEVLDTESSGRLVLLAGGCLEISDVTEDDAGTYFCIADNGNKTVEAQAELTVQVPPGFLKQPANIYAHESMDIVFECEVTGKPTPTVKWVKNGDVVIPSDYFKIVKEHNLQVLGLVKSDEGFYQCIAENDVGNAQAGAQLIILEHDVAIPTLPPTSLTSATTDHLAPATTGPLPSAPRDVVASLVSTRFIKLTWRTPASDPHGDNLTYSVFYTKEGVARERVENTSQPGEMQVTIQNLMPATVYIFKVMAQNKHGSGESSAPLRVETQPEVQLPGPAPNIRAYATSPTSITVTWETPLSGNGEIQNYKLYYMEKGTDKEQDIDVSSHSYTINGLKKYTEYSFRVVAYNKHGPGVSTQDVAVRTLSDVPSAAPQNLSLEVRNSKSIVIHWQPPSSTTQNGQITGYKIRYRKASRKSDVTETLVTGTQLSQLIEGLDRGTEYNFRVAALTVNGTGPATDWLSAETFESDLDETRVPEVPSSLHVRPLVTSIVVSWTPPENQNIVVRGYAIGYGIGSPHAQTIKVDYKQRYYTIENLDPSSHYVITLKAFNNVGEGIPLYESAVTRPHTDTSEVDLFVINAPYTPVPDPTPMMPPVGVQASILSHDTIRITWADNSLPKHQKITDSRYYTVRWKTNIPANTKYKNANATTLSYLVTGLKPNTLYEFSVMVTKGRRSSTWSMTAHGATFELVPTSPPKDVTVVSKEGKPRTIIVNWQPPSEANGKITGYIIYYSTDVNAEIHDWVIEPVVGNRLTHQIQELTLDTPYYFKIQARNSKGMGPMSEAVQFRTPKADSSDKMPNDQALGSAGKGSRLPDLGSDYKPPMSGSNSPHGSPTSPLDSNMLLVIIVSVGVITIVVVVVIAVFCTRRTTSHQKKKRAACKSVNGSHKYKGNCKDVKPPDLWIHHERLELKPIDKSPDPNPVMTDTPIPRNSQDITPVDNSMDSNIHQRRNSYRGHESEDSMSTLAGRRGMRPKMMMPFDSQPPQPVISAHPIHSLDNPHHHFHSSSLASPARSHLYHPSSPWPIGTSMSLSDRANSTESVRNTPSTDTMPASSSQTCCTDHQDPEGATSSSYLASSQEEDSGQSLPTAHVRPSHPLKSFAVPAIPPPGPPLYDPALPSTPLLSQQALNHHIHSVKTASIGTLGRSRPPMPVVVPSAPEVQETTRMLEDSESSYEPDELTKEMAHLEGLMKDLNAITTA
# UniProt P70211, residues 26-1447: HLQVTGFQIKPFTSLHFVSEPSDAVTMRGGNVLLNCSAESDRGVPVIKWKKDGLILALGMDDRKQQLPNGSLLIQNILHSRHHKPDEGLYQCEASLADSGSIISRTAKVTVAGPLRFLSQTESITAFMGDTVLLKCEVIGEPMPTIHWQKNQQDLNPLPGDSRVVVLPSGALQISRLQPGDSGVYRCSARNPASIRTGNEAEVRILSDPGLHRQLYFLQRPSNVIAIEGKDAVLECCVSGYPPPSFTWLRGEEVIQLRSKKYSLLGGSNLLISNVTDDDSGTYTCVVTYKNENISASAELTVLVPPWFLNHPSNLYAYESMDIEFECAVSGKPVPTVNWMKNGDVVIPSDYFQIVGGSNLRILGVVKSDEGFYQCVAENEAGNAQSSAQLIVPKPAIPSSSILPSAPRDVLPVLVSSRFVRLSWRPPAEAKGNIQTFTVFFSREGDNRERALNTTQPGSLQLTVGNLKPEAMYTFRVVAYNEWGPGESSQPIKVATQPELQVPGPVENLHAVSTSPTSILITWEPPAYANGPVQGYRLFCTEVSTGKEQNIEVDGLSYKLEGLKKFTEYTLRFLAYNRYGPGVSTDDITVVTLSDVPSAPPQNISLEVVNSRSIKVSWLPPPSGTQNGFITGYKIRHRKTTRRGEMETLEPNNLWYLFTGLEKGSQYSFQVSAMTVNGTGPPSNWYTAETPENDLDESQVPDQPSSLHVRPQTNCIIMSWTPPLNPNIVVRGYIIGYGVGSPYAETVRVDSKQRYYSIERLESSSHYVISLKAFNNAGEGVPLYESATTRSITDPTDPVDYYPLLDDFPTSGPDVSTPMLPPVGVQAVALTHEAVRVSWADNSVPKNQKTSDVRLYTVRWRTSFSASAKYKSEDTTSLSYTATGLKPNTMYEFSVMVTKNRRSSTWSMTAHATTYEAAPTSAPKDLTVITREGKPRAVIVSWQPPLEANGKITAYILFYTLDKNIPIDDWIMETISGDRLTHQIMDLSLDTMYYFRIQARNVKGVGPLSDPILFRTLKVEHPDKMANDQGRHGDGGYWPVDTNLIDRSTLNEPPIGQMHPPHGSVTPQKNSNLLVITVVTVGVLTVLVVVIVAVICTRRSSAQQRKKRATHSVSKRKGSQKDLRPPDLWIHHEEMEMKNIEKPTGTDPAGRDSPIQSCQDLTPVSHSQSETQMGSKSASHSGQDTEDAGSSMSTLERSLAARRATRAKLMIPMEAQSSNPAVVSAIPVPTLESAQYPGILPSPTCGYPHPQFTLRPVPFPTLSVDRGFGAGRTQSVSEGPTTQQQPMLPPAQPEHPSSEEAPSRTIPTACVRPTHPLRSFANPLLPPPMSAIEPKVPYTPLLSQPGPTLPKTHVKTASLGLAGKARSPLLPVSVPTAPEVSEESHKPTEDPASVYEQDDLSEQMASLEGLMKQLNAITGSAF
# UniProt Q8K1S3, residues 27-945: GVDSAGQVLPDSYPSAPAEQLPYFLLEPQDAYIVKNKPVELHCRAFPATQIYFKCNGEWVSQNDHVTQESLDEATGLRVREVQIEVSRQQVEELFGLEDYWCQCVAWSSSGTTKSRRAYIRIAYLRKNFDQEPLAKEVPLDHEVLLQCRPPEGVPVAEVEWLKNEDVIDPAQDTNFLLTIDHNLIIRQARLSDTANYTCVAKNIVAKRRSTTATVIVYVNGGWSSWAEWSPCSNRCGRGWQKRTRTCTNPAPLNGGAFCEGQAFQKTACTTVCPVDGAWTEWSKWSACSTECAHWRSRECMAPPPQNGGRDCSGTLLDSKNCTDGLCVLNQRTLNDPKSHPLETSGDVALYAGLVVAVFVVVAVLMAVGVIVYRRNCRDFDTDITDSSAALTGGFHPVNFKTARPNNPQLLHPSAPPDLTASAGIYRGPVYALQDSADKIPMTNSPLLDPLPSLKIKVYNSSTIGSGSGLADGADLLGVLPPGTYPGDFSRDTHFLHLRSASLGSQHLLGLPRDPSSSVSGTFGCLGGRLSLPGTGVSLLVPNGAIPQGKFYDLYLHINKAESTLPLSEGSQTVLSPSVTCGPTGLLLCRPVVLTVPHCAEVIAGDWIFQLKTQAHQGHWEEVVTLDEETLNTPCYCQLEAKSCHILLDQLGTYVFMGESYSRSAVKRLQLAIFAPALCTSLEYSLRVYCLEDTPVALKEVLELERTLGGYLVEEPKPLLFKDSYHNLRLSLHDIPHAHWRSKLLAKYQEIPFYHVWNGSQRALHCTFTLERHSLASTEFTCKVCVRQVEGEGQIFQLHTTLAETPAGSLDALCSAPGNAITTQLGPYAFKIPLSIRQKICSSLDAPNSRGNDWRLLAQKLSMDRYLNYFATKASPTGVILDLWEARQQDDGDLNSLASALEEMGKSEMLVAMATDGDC
# UniProt B2RSH2: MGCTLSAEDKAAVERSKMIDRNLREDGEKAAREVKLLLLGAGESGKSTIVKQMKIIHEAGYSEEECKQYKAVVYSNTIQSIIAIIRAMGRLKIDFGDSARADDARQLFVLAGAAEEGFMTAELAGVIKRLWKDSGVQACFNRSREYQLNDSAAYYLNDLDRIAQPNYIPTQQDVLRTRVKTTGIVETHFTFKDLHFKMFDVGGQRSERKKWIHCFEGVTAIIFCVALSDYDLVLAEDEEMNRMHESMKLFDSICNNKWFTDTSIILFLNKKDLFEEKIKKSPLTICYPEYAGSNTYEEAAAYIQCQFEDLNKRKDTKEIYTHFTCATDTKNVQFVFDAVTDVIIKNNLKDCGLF
# UniProt Q9DC51: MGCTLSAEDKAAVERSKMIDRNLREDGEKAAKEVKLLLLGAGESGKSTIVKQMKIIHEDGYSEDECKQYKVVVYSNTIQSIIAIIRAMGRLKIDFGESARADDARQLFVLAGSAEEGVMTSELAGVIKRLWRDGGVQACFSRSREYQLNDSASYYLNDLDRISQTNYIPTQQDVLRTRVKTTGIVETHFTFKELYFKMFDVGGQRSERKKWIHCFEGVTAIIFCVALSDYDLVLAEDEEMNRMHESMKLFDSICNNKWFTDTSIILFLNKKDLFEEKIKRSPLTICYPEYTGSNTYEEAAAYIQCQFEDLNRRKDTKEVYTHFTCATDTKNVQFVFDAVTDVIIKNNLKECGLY
# UniProt P43121, residues 24-646: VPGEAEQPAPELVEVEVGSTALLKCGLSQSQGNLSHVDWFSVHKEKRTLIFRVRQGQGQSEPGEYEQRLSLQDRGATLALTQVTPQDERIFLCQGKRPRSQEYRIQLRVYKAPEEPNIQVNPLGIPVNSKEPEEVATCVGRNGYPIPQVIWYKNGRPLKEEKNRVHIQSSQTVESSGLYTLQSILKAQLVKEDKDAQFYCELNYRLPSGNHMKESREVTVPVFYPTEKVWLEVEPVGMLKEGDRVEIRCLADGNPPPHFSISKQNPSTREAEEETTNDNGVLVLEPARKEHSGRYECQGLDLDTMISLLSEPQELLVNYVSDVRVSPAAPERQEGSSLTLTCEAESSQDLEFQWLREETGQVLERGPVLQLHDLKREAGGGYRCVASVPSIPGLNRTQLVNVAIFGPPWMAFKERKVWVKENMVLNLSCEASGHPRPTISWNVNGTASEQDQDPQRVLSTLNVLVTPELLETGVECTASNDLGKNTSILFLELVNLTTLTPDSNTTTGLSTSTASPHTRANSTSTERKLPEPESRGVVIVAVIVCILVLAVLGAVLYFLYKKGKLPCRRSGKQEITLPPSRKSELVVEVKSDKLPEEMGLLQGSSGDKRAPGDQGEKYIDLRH
# UniProt P63096: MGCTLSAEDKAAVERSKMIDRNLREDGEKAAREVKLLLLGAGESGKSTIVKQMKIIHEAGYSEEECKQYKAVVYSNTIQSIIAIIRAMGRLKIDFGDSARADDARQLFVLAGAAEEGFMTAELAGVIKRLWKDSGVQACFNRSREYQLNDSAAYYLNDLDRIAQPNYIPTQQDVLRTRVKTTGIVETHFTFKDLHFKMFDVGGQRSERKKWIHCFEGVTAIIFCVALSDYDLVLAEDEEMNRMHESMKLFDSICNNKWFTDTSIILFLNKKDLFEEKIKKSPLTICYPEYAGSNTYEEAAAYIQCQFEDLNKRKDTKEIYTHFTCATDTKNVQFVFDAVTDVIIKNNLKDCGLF
# UniProt Q8IZJ1, residues 27-945: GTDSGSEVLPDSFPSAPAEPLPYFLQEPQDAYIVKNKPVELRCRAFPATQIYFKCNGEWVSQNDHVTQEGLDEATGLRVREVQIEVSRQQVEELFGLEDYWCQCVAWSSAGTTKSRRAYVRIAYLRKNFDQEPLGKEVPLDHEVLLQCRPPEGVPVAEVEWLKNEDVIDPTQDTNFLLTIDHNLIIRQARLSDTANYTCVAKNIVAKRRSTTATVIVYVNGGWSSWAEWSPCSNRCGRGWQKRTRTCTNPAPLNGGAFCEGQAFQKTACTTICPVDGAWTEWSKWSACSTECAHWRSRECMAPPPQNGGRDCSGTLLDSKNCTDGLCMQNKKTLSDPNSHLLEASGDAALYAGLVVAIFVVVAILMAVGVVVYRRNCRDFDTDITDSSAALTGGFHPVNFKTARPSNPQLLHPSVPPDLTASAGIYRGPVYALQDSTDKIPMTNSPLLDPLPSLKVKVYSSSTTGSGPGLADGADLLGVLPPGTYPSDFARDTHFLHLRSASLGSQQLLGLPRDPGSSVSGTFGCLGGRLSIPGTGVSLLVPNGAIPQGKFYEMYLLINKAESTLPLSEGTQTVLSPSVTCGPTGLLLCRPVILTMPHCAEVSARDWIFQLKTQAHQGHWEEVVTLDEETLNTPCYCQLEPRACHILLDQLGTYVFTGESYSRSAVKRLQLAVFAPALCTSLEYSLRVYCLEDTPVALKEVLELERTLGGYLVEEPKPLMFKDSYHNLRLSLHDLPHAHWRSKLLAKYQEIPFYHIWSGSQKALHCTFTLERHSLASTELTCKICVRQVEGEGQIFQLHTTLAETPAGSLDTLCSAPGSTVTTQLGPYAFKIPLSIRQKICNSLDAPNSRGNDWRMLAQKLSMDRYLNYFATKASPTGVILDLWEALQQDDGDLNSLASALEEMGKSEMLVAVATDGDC
# No constants are given. Whether binding was seen depends on the method and setting. Binding seen in cells or lysates may run through a third protein. Some results given as binding are weak or reduced against the parent protein; the word gives no strength.
# T1: Grb2 associated binding protein 1 (Gab1), human (human (endogenous in HUVECs)) (UniProt Q13480)
# T1 sequence: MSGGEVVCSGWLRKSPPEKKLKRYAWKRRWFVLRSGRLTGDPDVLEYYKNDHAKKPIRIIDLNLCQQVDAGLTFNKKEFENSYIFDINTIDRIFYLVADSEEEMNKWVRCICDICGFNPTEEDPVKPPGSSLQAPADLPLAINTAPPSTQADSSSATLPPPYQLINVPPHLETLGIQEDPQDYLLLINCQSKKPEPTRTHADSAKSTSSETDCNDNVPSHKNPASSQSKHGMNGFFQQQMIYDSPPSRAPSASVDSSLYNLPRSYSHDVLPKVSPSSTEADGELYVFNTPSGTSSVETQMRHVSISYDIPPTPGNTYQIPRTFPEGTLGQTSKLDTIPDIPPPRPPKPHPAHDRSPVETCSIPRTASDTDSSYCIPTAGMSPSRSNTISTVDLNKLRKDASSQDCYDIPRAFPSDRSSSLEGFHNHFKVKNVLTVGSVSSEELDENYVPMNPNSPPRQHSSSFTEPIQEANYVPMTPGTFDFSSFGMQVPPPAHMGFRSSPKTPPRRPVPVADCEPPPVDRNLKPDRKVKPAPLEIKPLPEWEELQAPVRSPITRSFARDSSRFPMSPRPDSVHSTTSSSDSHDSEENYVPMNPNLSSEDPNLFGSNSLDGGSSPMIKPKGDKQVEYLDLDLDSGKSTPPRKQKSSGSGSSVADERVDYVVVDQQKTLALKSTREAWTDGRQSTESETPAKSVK
# T2: Grb2 associated binding protein 1 (Gab1), mouse (mouse (endogenous in MEFs)) (UniProt Q9QYY0)
# T2 sequence: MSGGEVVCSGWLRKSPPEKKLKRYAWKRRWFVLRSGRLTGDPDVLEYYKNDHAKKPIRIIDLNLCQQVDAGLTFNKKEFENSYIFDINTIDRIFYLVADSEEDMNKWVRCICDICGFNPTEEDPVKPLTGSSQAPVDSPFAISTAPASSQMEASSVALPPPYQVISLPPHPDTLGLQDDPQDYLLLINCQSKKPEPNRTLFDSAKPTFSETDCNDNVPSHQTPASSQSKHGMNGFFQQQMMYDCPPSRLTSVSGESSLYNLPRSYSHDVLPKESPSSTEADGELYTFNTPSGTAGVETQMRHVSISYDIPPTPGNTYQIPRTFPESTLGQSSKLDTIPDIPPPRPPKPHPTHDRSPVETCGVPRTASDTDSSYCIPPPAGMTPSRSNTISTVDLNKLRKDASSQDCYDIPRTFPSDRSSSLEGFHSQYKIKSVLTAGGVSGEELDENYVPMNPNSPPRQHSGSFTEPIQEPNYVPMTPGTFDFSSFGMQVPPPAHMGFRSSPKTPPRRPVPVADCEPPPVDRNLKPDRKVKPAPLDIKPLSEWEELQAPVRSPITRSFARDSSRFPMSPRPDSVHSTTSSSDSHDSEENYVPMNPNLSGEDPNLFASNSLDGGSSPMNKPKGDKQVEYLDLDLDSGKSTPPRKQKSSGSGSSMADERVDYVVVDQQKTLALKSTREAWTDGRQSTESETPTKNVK
# T3: CD146 (melanoma cell adhesion molecule, MCAM), mouse (mouse (endogenous in MEFs)) (UniProt Q8R2Y2)
# T3 sequence: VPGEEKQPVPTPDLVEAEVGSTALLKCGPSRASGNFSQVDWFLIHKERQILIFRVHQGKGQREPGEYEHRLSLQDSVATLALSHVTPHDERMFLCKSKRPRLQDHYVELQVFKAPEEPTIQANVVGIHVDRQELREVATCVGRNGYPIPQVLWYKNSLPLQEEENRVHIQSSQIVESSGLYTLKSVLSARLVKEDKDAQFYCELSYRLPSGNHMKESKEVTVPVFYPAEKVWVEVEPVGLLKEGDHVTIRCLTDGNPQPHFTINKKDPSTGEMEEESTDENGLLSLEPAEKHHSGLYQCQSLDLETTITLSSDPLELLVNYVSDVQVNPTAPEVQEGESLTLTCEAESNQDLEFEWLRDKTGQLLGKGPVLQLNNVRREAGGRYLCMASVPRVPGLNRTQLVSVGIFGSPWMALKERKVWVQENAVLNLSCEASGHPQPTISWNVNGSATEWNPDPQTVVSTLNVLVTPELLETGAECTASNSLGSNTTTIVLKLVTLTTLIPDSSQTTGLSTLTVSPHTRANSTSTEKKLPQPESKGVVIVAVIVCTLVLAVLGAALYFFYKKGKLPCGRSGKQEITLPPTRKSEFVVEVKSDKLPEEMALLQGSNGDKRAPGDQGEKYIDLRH
# Tests used:
# [1] = molecular target: T1, Grb2 associated binding protein 1 (Gab1), human (human (endogenous in HUVECs)); assay: co-IP; primary HUVECs treated with Netrin-1 (25 ng/mL) for 5 min; Gab1-immunoprecipitated proteins tested by Western blotting (Figure 3A)
# [2] = molecular target: T2, Grb2 associated binding protein 1 (Gab1), mouse (mouse (endogenous in MEFs)); assay: co-IP; WT MEFs after Netrin-1 treatment; Gab1 immunoprecipitated from total cellular lysates (antibody overnight at 4°C, Protein A/Sepharose beads), Western blotting (Figure S2A)
# [3] = molecular target: T2, Grb2 associated binding protein 1 (Gab1), mouse (mouse (endogenous in MEFs)); assay: co-IP; WT MEFs treated with Netrin-1 (25 ng/mL) for 5 min; primary antibody added to total cellular lysates overnight at 4°C, Protein A/Sepharose beads, Western blotting; precipitating antibody not stated (Figure 2B)
# [4] = molecular target: T3, CD146 (melanoma cell adhesion molecule, MCAM), mouse (mouse (endogenous in MEFs)); assay: as above
# [5] = molecular target: Neogenin, mouse (mouse (endogenous in MEFs)) (UniProt P97798); assay: as above
# [6] = molecular target: DCC Netrin-1 receptor (DCC), mouse (mouse (endogenous in MEFs)) (UniProt P70211); assay: as above
# [7] = molecular target: Unc-5 Netrin receptor B (UNC5B), mouse (mouse (endogenous in MEFs)) (UniProt Q8K1S3); assay: as above
Molecule,binding [1],binding [2],other results
"DCC Netrin-1 receptor (DCC), mouse (from UniProt P70211 26-1447)",–,no binding,–
"G protein subunit alpha i1 (Gαi1), mouse (from UniProt B2RSH2 1-354)",–,binds,binding [3]: binds; binding [4]: binds; binding [5]: no binding; binding [6]: no binding; binding [7]: no binding
"G protein subunit alpha i3 (Gαi3), human (from UniProt P08754 1-354)",binds,–,–
"G protein subunit alpha i3 (Gαi3), mouse (from UniProt Q9DC51 1-354)",–,binds,binding [3]: binds; binding [4]: binds; binding [5]: no binding; binding [6]: no binding; binding [7]: no binding
"Neogenin, mouse (from UniProt P97798 37-1492) (receptor)",–,no binding,–
"CD146 (melanoma cell adhesion molecule, MCAM), mouse (receptor, UniProt Q8R2Y2 24-648) VPGEEKQPVPTPDLVEAEVGSTALLKCGPSRASGNFSQVDWFLIHKERQILIFRVHQGKGQREPGEYEHRLSLQDSVATLALSHVTPHDERMFLCKSKRPRLQDHYVELQVFKAPEEPTIQANVVGIHVDRQELREVATCVGRNGYPIPQVLWYKNSLPLQEEENRVHIQSSQIVESSGLYTLKSVLSARLVKEDKDAQFYCELSYRLPSGNHMKESKEVTVPVFYPAEKVWVEVEPVGLLKEGDHVTIRCLTDGNPQPHFTINKKDPSTGEMEEESTDENGLLSLEPAEKHHSGLYQCQSLDLETTITLSSDPLELLVNYVSDVQVNPTAPEVQEGESLTLTCEAESNQDLEFEWLRDKTGQLLGKGPVLQLNNVRREAGGRYLCMASVPRVPGLNRTQLVSVGIFGSPWMALKERKVWVQENAVLNLSCEASGHPQPTISWNVNGSATEWNPDPQTVVSTLNVLVTPELLETGAECTASNSLGSNTTTIVLKLVTLTTLIPDSSQTTGLSTLTVSPHTRANSTSTEKKLPQPESKGVVIVAVIVCTLVLAVLGAALYFFYKKGKLPCGRSGKQEITLPPTRKSEFVVEVKSDKLPEEMALLQGSNGDKRAPGDQGEKYIDLRH",–,binds,binding [3]: binds

# The next lines start with results.
binding [1],binding [2],Molecule,other results
binds,–,"CD146 (melanoma cell adhesion molecule, MCAM), human (from UniProt P43121 24-646) (receptor)",–
no binding,–,"DCC Netrin-1 receptor (DCC), human (from UniProt P43146 26-1447)",–
binds,–,"G protein subunit alpha i1 (Gαi1), human (from UniProt P63096 1-354)",–
no binding,–,"Unc-5 Netrin receptor B (UNC5B), human (from UniProt Q8IZJ1 27-945)",–
–,no binding,"Unc-5 Netrin receptor B (UNC5B), mouse (from UniProt Q8K1S3 27-945)",–
no binding,–,"Neogenin, human (receptor, UniProt Q92859 34-1461) ARSGSAPQSPGASIRTFTPFYFLVEPVDTLSVRGSSVILNCSAYSEPSPKIEWKKDGTFLNLVSDDRRQLLPDGSLFISNVVHSKHNKPDEGYYQCVATVESLGTIISRTAKLIVAGLPRFTSQPEPSSVYAGNNAILNCEVNADLVPFVRWEQNRQPLLLDDRVIKLPSGMLVISNATEGDGGLYRCVVESGGPPKYSDEVELKVLPDPEVISDLVFLKQPSPLVRVIGQDVVLPCVASGLPTPTIKWMKNEEALDTESSERLVLLAGGSLEISDVTEDDAGTYFCIADNGNETIEAQAELTVQAQPEFLKQPTNIYAHESMDIVFECEVTGKPTPTVKWVKNGDMVIPSDYFKIVKEHNLQVLGLVKSDEGFYQCIAENDVGNAQAGAQLIILEHAPATTGPLPSAPRDVVASLVSTRFIKLTWRTPASDPHGDNLTYSVFYTKEGIARERVENTSHPGEMQVTIQNLMPATVYIFRVMAQNKHGSGESSAPLRVETQPEVQLPGPAPNLRAYAASPTSITVTWETPVSGNGEIQNYKLYYMEKGTDKEQDVDVSSHSYTINGLKKYTEYSFRVVAYNKHGPGVSTPDVAVRTLSDVPSAAPQNLSLEVRNSKSIMIHWQPPAPATQNGQITGYKIRYRKASRKSDVTETLVSGTQLSQLIEGLDRGTEYNFRVAALTINGTGPATDWLSAETFESDLDETRVPEVPSSLHVRPLVTSIVVSWTPPENQNIVVRGYAIGYGIGSPHAQTIKVDYKQRYYTIENLDPSSHYVITLKAFNNVGEGIPLYESAVTRPHTDTSEVDLFVINAPYTPVPDPTPMMPPVGVQASILSHDTIRITWADNSLPKHQKITDSRYYTVRWKTNIPANTKYKNANATTLSYLVTGLKPNTLYEFSVMVTKGRRSSTWSMTAHGTTFELVPTSPPKDVTVVSKEGKPKTIIVNWQPPSEANGKITGYIIYYSTDVNAEIHDWVIEPVVGNRLTHQIQELTLDTPYYFKIQARNSKGMGPMSEAVQFRTPKADSSDKMPNDQASGSGGKGSRLPDLGSDYKPPMSGSNSPHGSPTSPLDSNMLLVIIVSVGVITIVVVVIIAVFCTRRTTSHQKKKRAACKSVNGSHKYKGNSKDVKPPDLWIHHERLELKPIDKSPDPNPIMTDTPIPRNSQDITPVDNSMDSNIHQRRNSYRGHESEDSMSTLAGRRGMRPKMMMPFDSQPPQPVISAHPIHSLDNPHHHFHSSSLASPARSHLYHPGSPWPIGTSMSLSDRANSTESVRNTPSTDTMPASSSQTCCTDHQDPEGATSSSYLASSQEEDSGQSLPTAHVRPSHPLKSFAVPAIPPPGPPTYDPALPSTPLLSQQALNHHIHSVKTASIGTLGRSRPPMPVVVPSAPEVQETTRMLEDSESSYEPDELTKEMAHLEGLMKDLNAITTA",–
